# PMC4336329 (PLoS ONE, 2015)
# In all, about 310,000 compounds went through this assay and about 2,200 (0.71%) showed an effect of 50% or more. Effects have a minus sign here. This is one part of the list.
# Molecular target: human ether-à-go-go-related gene (hERG) potassium channel (human, UniProt Q12809)
# Experiment: primary screen, population patch clamp on CHO cells stably expressing hERG
# human ether-à-go-go-related gene (hERG) potassium channel, sequence (Q12809 whole entry, looked up): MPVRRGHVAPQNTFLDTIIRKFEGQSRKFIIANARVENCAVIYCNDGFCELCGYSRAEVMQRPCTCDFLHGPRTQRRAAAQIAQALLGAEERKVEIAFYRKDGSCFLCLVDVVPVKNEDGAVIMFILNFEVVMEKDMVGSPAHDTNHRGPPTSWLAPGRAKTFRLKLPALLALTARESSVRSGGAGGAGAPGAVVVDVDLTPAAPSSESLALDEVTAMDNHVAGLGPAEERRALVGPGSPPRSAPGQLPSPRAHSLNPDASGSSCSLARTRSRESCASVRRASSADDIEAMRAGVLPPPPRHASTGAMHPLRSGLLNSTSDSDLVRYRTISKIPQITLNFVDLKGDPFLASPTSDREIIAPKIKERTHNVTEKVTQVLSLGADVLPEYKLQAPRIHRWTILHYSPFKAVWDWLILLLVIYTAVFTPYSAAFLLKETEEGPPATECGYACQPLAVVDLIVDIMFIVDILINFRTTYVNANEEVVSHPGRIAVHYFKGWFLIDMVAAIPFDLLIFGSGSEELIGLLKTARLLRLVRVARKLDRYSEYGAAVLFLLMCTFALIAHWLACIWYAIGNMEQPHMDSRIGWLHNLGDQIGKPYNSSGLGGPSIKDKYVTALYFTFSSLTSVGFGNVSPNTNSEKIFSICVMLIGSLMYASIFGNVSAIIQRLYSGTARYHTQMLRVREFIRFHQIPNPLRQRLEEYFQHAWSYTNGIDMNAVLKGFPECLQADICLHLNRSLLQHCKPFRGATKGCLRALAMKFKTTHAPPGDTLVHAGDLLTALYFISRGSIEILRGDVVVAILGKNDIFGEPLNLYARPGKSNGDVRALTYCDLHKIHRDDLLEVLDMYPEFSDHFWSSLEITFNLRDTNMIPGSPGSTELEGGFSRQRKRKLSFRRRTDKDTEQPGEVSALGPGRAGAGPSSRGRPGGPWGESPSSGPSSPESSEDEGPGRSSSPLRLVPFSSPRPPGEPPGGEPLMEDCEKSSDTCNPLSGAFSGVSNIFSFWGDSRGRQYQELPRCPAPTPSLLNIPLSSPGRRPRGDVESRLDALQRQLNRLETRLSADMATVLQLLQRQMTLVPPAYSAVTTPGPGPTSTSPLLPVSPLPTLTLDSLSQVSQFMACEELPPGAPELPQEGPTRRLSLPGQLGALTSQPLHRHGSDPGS
row,SMILES,"hERG current change (%, negative = inhibition) at 1uM"
1,O=C(Nc1ccc(Br)cc1Cl)NC1CC1,3.27%
2,CC(C)N(Cc1ccccc1)C(=S)NC(=O)C1(C)CC1(Cl)Cl (centres unmarked),1.46%
3,O=C(O)CCCC(=O)Nc1nc2n(n1)C(c1ccc(F)cc1)CC(c1ccc(Cl)cc1)N2 (centres unmarked),6.57%
4,Fc1ccccc1SCc1nnc(-c2ccccc2Br)o1,10.7%
5,Cc1ccc2c(c1)N(CCCC(=O)NCCCN1CCCC1=O)C(=O)CO2,0.168%
6,Cc1cc(C)c(C#N)c(SCc2nc3ccccc3[nH]2)n1,-0.685%
7,CCOC(=O)c1nn(-c2ccc(C)cc2)cc1C(=O)c1ccccc1,10.7%
8,Cc1ccc(C(=O)NCC(=O)OCC(=O)c2ccccc2)s1,-0.567%
9,NC(=O)CSc1nc2c(c(=O)n1-c1ccccc1)C1(CCCCC1)Cc1ccccc1-2,16.4%
10,O=C(O)C(=O)O.O=C(c1cccs1)N1CCN(Cc2cccc([N+](=O)[O-])c2)CC1,-7.52%
11,Cc1ccc(NC(=O)CC(C)S(=O)(=O)c2ccc3c(c2)NC(=O)CO3)c(Cl)c1 (centres unmarked),8.92%
12,COc1ccc(NC(=O)C2CCCN(S(=O)(=O)c3ccc(C)cc3)C2)cc1OC (centres unmarked),21.2%
13,O=C(c1ccc(F)cc1)n1c(=S)nc2ccccn21,11%
14,CCOC(=O)c1c(NC(=O)CN2C(=O)NC(C)(c3ccccc3)C2=O)sc(C)c1C (centres unmarked),10.1%
15,CCC(C)NC(=O)c1cc2c(=O)n3cccc(C)c3nc2s1 (centres unmarked),11.8%
16,O=C(NCCc1c[nH]c2ccccc12)/C(=C/c1cccnc1)NC(=O)c1cccs1,9.36%
17,CCOC(=O)c1c(NC(=O)CSc2nc3ccc(OC)cc3[nH]2)sc2c1CC(C)(C)NC2(C)C,6.37%
18,O=C(NCCc1nnc2ccc(N3CCCCCC3)nn12)c1ccccc1F,4.72%
19,CN(C(=O)c1ccc(NC(=O)Cc2ccc(NC(=O)C3CCCN(C(=O)c4ccccc4)C3)cc2)cc1)C1CC1 (centres unmarked),20.8%

row,SMILES,"hERG current change (%, negative = inhibition) at 1uM"
1,O=C(NCc1cccnc1)C1CCC(CNS(=O)(=O)c2cccc3nsnc23)CC1 (centres unmarked),-10.1%
2,Cc1ccnc(NC(=O)Cc2ccc(-c3ccccc3)cc2)c1,8.82%
3,CS(=O)(=O)c1ccccc1-c1nc(-c2ccc([N+](=O)[O-])cc2)no1,7.08%
4,CC1=C(C(=O)OCc2ccccc2)C(c2ccccc2Br)NC(=O)N1 (centres unmarked),14.2%
5,CC(C)c1ccccc1NS(=O)(=O)N(C)C,11.2%
6,CCN(CC)CCCNC(=O)c1cc2c(-c3cccc(OC)c3)nn(C)c2s1,0.205%
7,Cc1ccc(Cl)cc1N1CCN(C(=S)NCc2ccco2)CC1,12.1%
8,CCOc1ccc(-n2c(SCc3cc(=O)oc4cc(C)c(C(C)C)cc34)nnc2-c2cccnc2)cc1,1.81%
9,O=C(CSc1ccc2ccccc2n1)NCc1ccc2c(c1)OCO2,6.56%
10,Cc1c(C(=O)OCC[N+]2(C)CCCCC2)oc2ccccc12.[I-],5.34%
11,Fc1ccccc1N1CCN(c2ncnc3nc[nH]c23)CC1,12.1%
12,CCCC12CN3CC(C)(CN(C1)C31CCCCC1)C2=O,10.9%
13,CCC1(c2ccccc2)NC(=O)N(CC(=O)Nc2ccc3c(C)cc(=O)oc3c2)C1=O (centres unmarked),19.8%
14,O=C(CS(=O)(=O)c1ccc(F)cc1)N1CCN(c2ccccc2)CC1,-9.32%
15,COc1cccc(/C=N/n2c(-c3cc(C)[nH]n3)n[nH]c2=S)c1O,11.1%
16,Cc1ccc(N2CCN(S(=O)(=O)c3ccc(Cl)s3)CC2C)cc1 (centres unmarked),8.44%
17,Cc1ccc(S(=O)(=O)N2CCN(C(=S)NCc3ccc4c(c3)OCO4)CC2)cc1,1.69%
18,Cc1nn(CCC#N)c2nc(C(F)(F)F)[nH]c(=O)c12,-5.04%
19,COc1ccc(N=Cc2ccc(-c3ccccc3)o2)cc1,11%

row,SMILES,"hERG current change (%, negative = inhibition) at 1uM"
1,CCOc1ccccc1N(CC(=O)NCCSc1ccccc1)S(C)(=O)=O,8.63%
2,CCCOC(=O)/C=C/c1c(C)[nH]c(=O)[nH]c1=O,1.11%
3,Cc1ccc(NC(=S)NCc2ccc(Cl)cc2)c(OC(F)F)c1,4.09%
4,CC(=O)Nc1ccc(Oc2sc(C(=O)c3ccccc3)c(N)c2C#N)cc1,9.56%
5,CCOc1ccc(C(=O)Nc2nnc(S(=O)(=O)N3CCCCC3)s2)cc1,13.4%
6,CC(C)[C@H](NC(=O)c1ccco1)C(=O)NCc1ccccc1,16.9%
7,CC(=O)Oc1c(C)c(=O)n(C)c2ccccc12,7.71%
8,COc1ccc(Nc2nc(-c3sc(N)nc3C)cs2)cc1,17.4%
9,C(=N\Nc1nc2ccccc2s1)/c1ccco1,8.41%
10,CC1=NN(C(=O)c2ccc(Cn3nc(C)c(Br)c3C)cc2)C(O)(C(F)(F)F)C1 (centres unmarked),12.1%
11,O=c1[nH][nH]c(=O)c2c(NS(=O)(=O)c3ccccc3)cccc12,18.2%
12,COc1cccc(CSc2nnnn2-c2ccc(O)cc2)c1,0.827%
13,Cc1cc(S(=O)(=O)NCc2ccc(N3CCN(C)CC3)cc2)c(C)s1,-1.23%
14,O=C(C1CC(c2ccc(F)cc2)=NO1)N1CCN(Cc2ccccc2)CC1 (centres unmarked),-7.94%
15,Cc1c(O)ccc2c(O)c(NC(=O)c3ccc4c(c3)CCC(C)(C)O4)c(=O)oc12,16.7%
16,O=S(=O)(NC(=S)c1ccccc1)c1ccccc1,10.8%
17,CC(C(=O)Nc1ccc2c(c1)OCO2)N1CCC(N2CCCCC2)CC1.O=C(O)C(=O)O (centres unmarked),11.9%
18,O=C(Oc1ccc(NC2=NS(=O)(=O)c3ccccc32)cc1)c1cccnc1,9.43%
